Test results published in the supplement of paper PMC3334620.
In all, about 33,000 sequences were measured (“E-score (-0.5 to 0.5)”: median about -0.012, highest 2% from about 0.27 on). The list shows a part of the results.

target: T1, Vhr1 (UniProt P40522); test: PBM E-score (8-mer binding enrichment) (E-score (-0.5 to 0.5)); higher = stronger / more preferred TF binding; most listed sequences are background and not binding sites; conditions: protein concentration: 200 nM; construct: GST-full length
T1 sequence: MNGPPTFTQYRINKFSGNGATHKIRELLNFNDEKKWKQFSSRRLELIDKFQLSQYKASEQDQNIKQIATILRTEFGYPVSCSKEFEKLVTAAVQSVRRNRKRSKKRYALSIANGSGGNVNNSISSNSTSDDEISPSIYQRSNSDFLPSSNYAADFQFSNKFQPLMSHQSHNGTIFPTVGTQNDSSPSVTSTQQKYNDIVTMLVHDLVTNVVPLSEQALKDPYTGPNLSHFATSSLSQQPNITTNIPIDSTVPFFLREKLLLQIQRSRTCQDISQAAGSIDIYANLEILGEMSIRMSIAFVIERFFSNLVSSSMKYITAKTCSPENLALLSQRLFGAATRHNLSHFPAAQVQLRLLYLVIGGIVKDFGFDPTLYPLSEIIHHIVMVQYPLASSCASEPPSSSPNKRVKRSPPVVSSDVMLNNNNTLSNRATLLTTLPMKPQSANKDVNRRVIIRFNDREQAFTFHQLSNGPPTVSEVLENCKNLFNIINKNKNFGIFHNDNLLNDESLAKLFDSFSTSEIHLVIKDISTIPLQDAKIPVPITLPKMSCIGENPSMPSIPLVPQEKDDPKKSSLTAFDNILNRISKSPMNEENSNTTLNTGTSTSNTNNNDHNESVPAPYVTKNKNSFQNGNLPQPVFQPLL
Procedure: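 Universal 'all 10-mer' protein binding microarrays (Agilent AMADID 015681) probed with GST-tagged S. cerevisiae TFs (full-length or DBD) made by in vitro transcription/translation (PURExpress), about 100-200 nM. Bound TF was detected with fluorescent anti-GST. Each ungapped 8-mer (which stands for itself and its reverse complement) is scored by the PBM enrichment score (E-score), a modified Wilcoxon-Mann-Whitney statistic from -0.5 to +0.5, computed with the Universal PBM Analysis Suite. Scale: above 0.35 generally sequence-specific binding.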

Row | Sequence | PBM E-score
1 | CTTTGCAA | -0.144
2 | ACCGGAAC | 0.175
3 | ACCCGTTG | 0.101
4 | AGACGTTG | 0.0126
5 | AGTAGTTC | 0.108
6 | CAAGCGCC | -0.167
7 | CACAGGAC | 0.149
8 | AGGGTTGC | -0.068
9 | ACTTTAGG | -0.213
10 | AAATCGAT | 0.0304
11 | GTCGGGCA | -0.127
12 | ACCTAGAG | -0.061
13 | GGTTCTCA | -0.0594
14 | CACTTCGG | 0.0782
15 | AGTGGCAG | -0.0742
16 | ATTATATG | 0.0829
17 | CTCAATGA | 0.105
18 | CCCCGTAG | -0.0848
19 | CGTGCGAC | 0.109
20 | TAGGACCA | -0.063
21 | CATCCAAA | 0.0787
22 | GTCCGGGA | 0.0879
23 | ATAATTCC | -0.158
24 | ACCTACCC | 0.0604
25 | ATCTCACA | 0.156

Row | Sequence | PBM E-score
26 | CCAATATC | 0.0759
27 | CCTCACGA | -0.038
28 | TGCGAAAA | -0.0344
29 | TAACATTA | -0.0109
30 | AGCAAAGC | -0.0978
31 | CCGGCTTC | 0.0497
32 | GAGGGTGC | -0.121
33 | AAGTTGAT | -0.12
34 | CCTCTCTC | -0.232
35 | AGTGTCTG | 0.0892
36 | ACTGATGC | 0.078
37 | CATAATCA | 0.308
38 | TCGTGCAA | 0.0478
39 | CGCATGAC | 0.2
40 | ACTTATTC | 0.0504
41 | ACCCGGTC | -0.0722
42 | AAGCTTCG | -0.173
43 | AATTAATA | 0.102
44 | ATAATATA | 0.3
45 | ATCACGTG | -0.0446
46 | CGCTCCAG | -0.0885
47 | GAGTGCGC | -0.0251
48 | ATATGATA | 0.224
49 | TCAGAGCA | -0.0222
50 | GCACGGCA | -0.167

Row | Sequence | PBM E-score
51 | AAATTCCA | -0.148
52 | GGGAGGTA | 0.121
53 | ACTCAAAT | -0.0707
54 | ACAACAAC | 0.16
55 | GACTTAAC | -0.185
56 | ACGCTGTG | 0.174
57 | AGGTGTCG | 0.134
58 | CTGGCCCA | -0.133
59 | AGCCGCTA | -0.098
60 | CATCAGGA | 0.166
61 | AGACACCC | 0.177
62 | AATCAAGC | 0.0128
63 | CAACTTAC | -0.0516
64 | ACGCGGAT | 0.129
65 | ATTTCCCG | 0.0115
66 | TAGAGGAA | -0.307
67 | ATCACGCA | 0.176
68 | AAAGCGCT | -0.083
69 | GTAGCGGA | 0.0508
70 | CGTCGGGA | -0.0491
71 | CTGGTCGC | 0.105
72 | ATTGGCAA | 0.0954
73 | CGTCACTA | 0.0865
74 | CCAATCAG | -0.0885
75 | AGCGGCAG | -0.177

Row | Sequence | PBM E-score
76 | CCGTGTTA | 0.152
77 | ACCTTTAG | -0.224
78 | ACTAAGGC | -0.14
79 | ATGTACTA | 0.128
80 | CCTGTTAA | -0.169
81 | ATAGAACA | -0.0271
82 | AAAGGTCT | -0.289
83 | AGAGTGTA | 0.0471
84 | ATTGTTAA | 0.0262
85 | CACCGCTA | -0.0928
86 | CTGTTAAG | -0.121
87 | GTCGATTA | -0.0296
88 | TCACGTAA | -0.0451
89 | CGGCCAAA | -0.232
90 | TCCATGAA | 0.123
91 | CGAGCAAC | -0.0995
92 | GGTTACCA | 0.116
93 | ACGGCCAT | 0.0221
94 | GCCCCCGC | -0.00402
95 | GACGCTGA | 0.0711
96 | AACTGTGT | 0.111
97 | GCTTGACA | -0.16
98 | AGCAAGCA | -0.0599
99 | CGGGAATC | -0.00766
100 | GCTGGGCC | -0.205

Row | Sequence | PBM E-score
101 | TATTCACA | 0.0257
102 | CACTCGCG | 0.129
103 | TAGTTTGA | 0.0738
104 | CTCGTACA | 0.0426
105 | ACGTGTGA | 0.022
106 | ATAACGCC | -0.0482
107 | ACTGTTCG | 0.03
108 | ATCGCGTA | -0.0246
109 | TAAACGTA | -0.115
110 | AACTCTTC | -0.138
111 | AACCGGTG | -0.187
112 | ACCTATGG | 0.0698
113 | CTATCCCA | -0.0474
114 | GAGAAACC | -0.0374
115 | AGACGAGG | -0.151
116 | AGTAATTA | 0.134
117 | CCTCCTTA | -0.177
118 | CGGCCCAC | -0.191
119 | GGCATCGA | -0.257
120 | CCCTCCGC | -0.155
121 | AATACACA | 0.246
122 | ACTTCAGA | -0.0467
123 | TAGCGCCA | -0.0874
124 | CAACTGAG | 0.201
125 | GACAACCA | 0.0056

Row | Sequence | PBM E-score
126 | CGGTCAAC | 0.0471
127 | AGACGCCG | 0.00826
128 | TAGGGATA | -0.0231
129 | GAAGCCGA | 0.0458
130 | CTGGTTAA | -0.0274
131 | CCTCTTAG | -0.14
132 | ATGTGGAA | 0.0819
133 | GGAATAAC | -0.071
134 | TACAGCCA | 0.0431
135 | TTCCACAA | 0.139
136 | CGTAATAA | 0.0802
137 | ACGAGGAC | 0.0419
138 | CGCACTAA | 0.156
139 | CGTATCGC | 0.0065
140 | ATCGAAGA | -0.0137
141 | GCCCCCAC | -0.274
142 | CTCCTCTC | -0.215
143 | ACTGACAC | 0.0369
144 | AAGGGAAT | -0.179
145 | ATTCCACC | 0.179
146 | GAGCCGAA | 0.0162
147 | TGGCGTAA | -0.212
148 | CCTCAAGG | -0.289
149 | CAAGGCAG | 0.0176
150 | AGGCGTGA | 0.019

Row | Sequence | PBM E-score
151 | ATGCAGGC | 0.0143
152 | CGATCCAC | 0.112
153 | AAAGAGGC | -0.255
154 | CCATCCGC | 0.0427
155 | AAGTTTGT | -0.034
156 | AACCGATC | 0.0252
157 | GTCACATA | 0.261
158 | CATCTCAC | 0.067
159 | CTCTCTCA | -0.121
160 | CACACACC | 0.235
161 | CTCCGGCC | -0.237
162 | AAGGATTG | -0.0386
163 | ACATCGTG | 0.141
164 | AGCACCAA | -0.0328
165 | CACGCCTG | -0.182
166 | AAGTACCG | -0.139
167 | CTGAACGA | -0.141
168 | ATGCCGTA | -0.05
169 | CGCATTGC | 0.109
170 | CGGATCAC | 0.198
171 | GCCTTACA | -0.225
172 | AGACAGCC | -0.0763
